Experimental findings from the BET-seq Pho4 binding data (Le et al. 2018) are described below.

Some of the results follow. Values were computed here from the reads of four pooled replicates and scatter widely.

This assay has as its target T1, Pho4 (S. cerevisiae) (UniProt P07270).
T1 sequence: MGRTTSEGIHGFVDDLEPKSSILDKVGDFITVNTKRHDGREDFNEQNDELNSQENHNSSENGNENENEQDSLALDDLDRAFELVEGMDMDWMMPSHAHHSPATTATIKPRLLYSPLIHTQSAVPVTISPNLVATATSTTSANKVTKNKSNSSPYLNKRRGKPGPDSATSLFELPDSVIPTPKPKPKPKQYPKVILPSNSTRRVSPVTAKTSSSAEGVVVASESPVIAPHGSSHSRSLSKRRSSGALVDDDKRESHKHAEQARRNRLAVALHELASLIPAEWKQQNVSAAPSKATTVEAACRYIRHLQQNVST
Description: relative binding free energy (BET-seq); higher = weaker binding. The note with it: reference: library average.
Consider CTTGTCACGTGTTTCT, for which the “relative binding free energy” value was found to be 0.03 kcal/mol.
To AGCAACACGTGAGGGT belongs 0.17 kcal/mol.
Consider GGTGACACGTGTCTGT, for which the “relative binding free energy” value is -0.01 kcal/mol.
With AAGAACACGTGGTGGT the figure was -0.07 kcal/mol; with CCAGTCACGTGTTTGT, 0.17 kcal/mol.
To GTTGACACGTGGAGGA belongs 0.19 kcal/mol; to GTAGTCACGTGGGGTG, 0.04 kcal/mol; to GCAGGCACGTGGTCGG, -0.23 kcal/mol.
To GTTGACACGTGATTGC belongs 0.33 kcal/mol; to GGGGTCACGTGTGGGT, 0.24 kcal/mol.
As for TCAGACACGTGTGAGT, the “relative binding free energy” value came to 0.08 kcal/mol.
With TTTTACACGTGAAGGT the figure was 0.34 kcal/mol.
For the sequence TGGGCCACGTGGGGGG, the “relative binding free energy” value was -0.19 kcal/mol.
With TGGGACACGTGTCGTT the figure was -0.12 kcal/mol.
To GAAATCACGTGGCGGG belongs 0.13 kcal/mol.
GTGAACACGTGTGAAG: the “relative binding free energy” value is 0.17 kcal/mol.
For the sequence AAAGACACGTGGTAAT, the “relative binding free energy” value is 0.17 kcal/mol.
To TATTCCACGTGTTTGT belongs -0.06 kcal/mol.
Take GAGGGCACGTGCAAAG: the “relative binding free energy” value was 0.14 kcal/mol.
To ATTGGCACGTGTTGTT belongs -0.01 kcal/mol; to CTGGACACGTGGTTGT, -0.2 kcal/mol; to TGCGGCACGTGTCGTG, -0.25 kcal/mol.
With GCATGCACGTGTGGTG the figure was 0.09 kcal/mol; with AGATGCACGTGGGGCT, -0.19 kcal/mol; with GGTAACACGTGCGGGC, -0.08 kcal/mol.
In the case of ATTTCCACGTGGATTT, the “relative binding free energy” value was found to be 0.14 kcal/mol.
Consider GCATACACGTGTGTGG, for which the “relative binding free energy” value is 0.08 kcal/mol.
With GAGAGCACGTGTGGGA the figure was -0.09 kcal/mol; with TATTTCACGTGGAGAA, 0.17 kcal/mol.
With AGGCTCACGTGGTTGT the figure was 0.2 kcal/mol.
Consider TTCAGCACGTGTGGTC, for which the “relative binding free energy” value was -0.01 kcal/mol.
With TAAGGCACGTGTTATT the figure was -0.11 kcal/mol; with CGGGGCACGTGCAGAG, -0.16 kcal/mol; with GTGATCACGTGGCTGA, 0.05 kcal/mol.
With GCGCCCACGTGGGGGG the figure was -0.35 kcal/mol.
TAAGGCACGTGCTTTG: the “relative binding free energy” value is -0.11 kcal/mol.
To AAGTTCACGTGCATGG belongs 0.24 kcal/mol.
To GGTGCCACGTGGGAAT belongs -0.13 kcal/mol.
With ATGGCCACGTGGTGTT the figure was -0.18 kcal/mol; with GTGGACACGTGGAGGT, 0.14 kcal/mol; with TGATGCACGTGATCGT, 0 kcal/mol.
For CGGGACACGTGTGGTA, the “relative binding free energy” value is -0.08 kcal/mol.
To TCGATCACGTGTTATT belongs 0.22 kcal/mol.
On to GAAATCACGTGTCGTG, for which the “relative binding free energy” value is 0.25 kcal/mol.
With AAGGACACGTGTTAGG, the “relative binding free energy” value is -0.17 kcal/mol.
With ACAGGCACGTGGTGGA the figure was -0.13 kcal/mol.
To TAAGGCACGTGTGGGG belongs -0.05 kcal/mol.
On to GTGGGCACGTGGACAA, for which the “relative binding free energy” value was -0.13 kcal/mol.
For the sequence GGTTGCACGTGGTTCG, the “relative binding free energy” value worked out at 0.06 kcal/mol.
With ATGTACACGTGCTTTG the figure was 0.07 kcal/mol; with CGGCGCACGTGAAGTG, 0.15 kcal/mol.
With GGTAACACGTGTAGAG the figure was 0.2 kcal/mol; with TCTAGCACGTGGGGGC, -0.08 kcal/mol.
To TGCTACACGTGTGGTC belongs 0.09 kcal/mol; to GGTTGCACGTGGAGCG, -0.04 kcal/mol.
In the case of TGTTGCACGTGGTTAC, the “relative binding free energy” value is -0.13 kcal/mol.
To GCAGTCACGTGCGGGT belongs 0 kcal/mol.
To TTATCCACGTGAGTGT belongs 0.2 kcal/mol.
To CTGTTCACGTGACGTG belongs 0.35 kcal/mol; to ATGGACACGTGCGGGC, -0.01 kcal/mol.
Consider GTAGTCACGTGTGGCT, for which the “relative binding free energy” value is 0.19 kcal/mol.
With TTTGGCACGTGGTCGC the figure was -0.26 kcal/mol; with AGGGCCACGTGTAGGC, -0.01 kcal/mol.
With CTGGTCACGTGGTAGC the figure was 0.11 kcal/mol; with GATATCACGTGGGAGG, 0.16 kcal/mol.
To GGTGCCACGTGTTAAG belongs 0.04 kcal/mol.
Consider GAGGTCACGTGATGTT, for which the “relative binding free energy” value was found to be 0.26 kcal/mol.
As to GTGAGCACGTGGCAGG, the “relative binding free energy” value is -0.16 kcal/mol.
For the sequence AAAATCACGTGGTAGG, the “relative binding free energy” value came to 0.16 kcal/mol.
To ATGGTCACGTGTCAGA belongs 0.06 kcal/mol.
To AGATTCACGTGTCTTG belongs 0.44 kcal/mol; to TGGCGCACGTGAGTCG, 0.09 kcal/mol.
With GTTATCACGTGGAGGA the figure was 0.12 kcal/mol.
For GGTGGCACGTGAAGTT, the “relative binding free energy” value amounted to 0.38 kcal/mol.
Take ATTTGCACGTGTGGTA: the “relative binding free energy” value was determined as 0.05 kcal/mol.
With GTCGGCACGTGGTTGT the figure was -0.04 kcal/mol; with AGAGACACGTGTGTGA, -0.09 kcal/mol.
To TGGAACACGTGTGGTT belongs 0.09 kcal/mol; to TGAATCACGTGGTATA, 0.06 kcal/mol; to TTATGCACGTGAGCGT, 0.14 kcal/mol.
For TTTATCACGTGGTGAA, the “relative binding free energy” value was found to be 0.09 kcal/mol.
With GACGGCACGTGGGGCG the figure was -0.24 kcal/mol; with GGGAGCACGTGAGCGG, 0.15 kcal/mol.
With AGGAACACGTGGGTTA the figure was -0.04 kcal/mol.
With TGGTACACGTGTTGAC the figure was 0.02 kcal/mol; with GCCGTCACGTGGGGTG, 0.01 kcal/mol.
Consider TGAGTCACGTGCATGG, for which the “relative binding free energy” value is 0.08 kcal/mol.
With GGCGTCACGTGCTGTT the figure was 0.05 kcal/mol; with TTCTTCACGTGGGGGT, 0.25 kcal/mol.
To TGGTACACGTGATATG belongs 0.1 kcal/mol.
With TGACTCACGTGGGTGA the figure was -0.1 kcal/mol; with ATGTGCACGTGAAGTC, 0.18 kcal/mol; with ACTGACACGTGTGGGG, 0.02 kcal/mol.
Consider GTTGACACGTGTTGCA, for which the “relative binding free energy” value came to 0.11 kcal/mol.
To GTTAACACGTGTGACG belongs 0.23 kcal/mol.
To CATGTCACGTGTAAGA belongs 0.19 kcal/mol; to TATTGCACGTGGGCAG, -0.23 kcal/mol; to ATCTGCACGTGTTATG, 0.05 kcal/mol.
Take TAGGGCACGTGCGGAT: the “relative binding free energy” value is -0.15 kcal/mol.
With AATGTCACGTGAGTTT the figure was 0.29 kcal/mol.
With AGGGACACGTGGTGTA the figure was -0.02 kcal/mol; with TGGTACACGTGCCGTG, -0.04 kcal/mol.
On to AATTACACGTGGGTCG, for which the “relative binding free energy” value is 0.15 kcal/mol.
To CTAATCACGTGGCTGG belongs 0.2 kcal/mol; to GTGGACACGTGGCGCG, -0.02 kcal/mol.
With AGCGGCACGTGCGCGG the figure was -0.3 kcal/mol.
In the case of TGAGACACGTGTTTTA, the “relative binding free energy” value came out at 0.04 kcal/mol.
As for TAAAGCACGTGGTTAA, the “relative binding free energy” value is -0.21 kcal/mol.
With CTTAGCACGTGTGGAA the figure was 0.05 kcal/mol; with TCAAGCACGTGTGCGT, 0.05 kcal/mol.
In the case of GTAGTCACGTGGGGTC, the “relative binding free energy” value was -0.02 kcal/mol.
To AGAGGCACGTGCGTTG belongs -0.07 kcal/mol.
With AAAAGCACGTGCGGGG the figure was -0.13 kcal/mol.
To GTTATCACGTGATAGA belongs 0.21 kcal/mol; to CAGGGCACGTGTTGGC, -0.01 kcal/mol; to ATCAGCACGTGTTTGT, -0.14 kcal/mol.
On to GGTATCACGTGACGTG, for which the “relative binding free energy” value is 0.28 kcal/mol.
With GGTATCACGTGTATAT the figure was 0.26 kcal/mol.
With TATGGCACGTGTCGTA the figure was -0.1 kcal/mol; with TCCGGCACGTGGAGGT, -0.08 kcal/mol.
As for ATAGGCACGTGTAGAA, the “relative binding free energy” value was -0.08 kcal/mol.
To TGGTACACGTGTTCTT belongs 0 kcal/mol; to ACGCTCACGTGGGTTG, -0.05 kcal/mol; to TTTACCACGTGTTGTT, 0 kcal/mol.
Regarding AAGTGCACGTGTTGAA, the “relative binding free energy” value was 0.04 kcal/mol.
With ACAGTCACGTGGTTGT the figure was 0.14 kcal/mol.
With ATGCGCACGTGTTTAG the figure was -0.09 kcal/mol.
With CAAAGCACGTGTGTGG the figure was -0.08 kcal/mol; with TGATGCACGTGCTATG, -0.16 kcal/mol.
In the case of AGAGTCACGTGAAGTT, the “relative binding free energy” value worked out at 0.33 kcal/mol.
With AGGTTCACGTGTTCTG the figure was 0.19 kcal/mol; with TACGTCACGTGAATGG, 0.24 kcal/mol; with GGTTACACGTGGTTAA, 0.22 kcal/mol.
To TTTAACACGTGAAGGC belongs 0.35 kcal/mol.
To CAGGTCACGTGGAAGG belongs 0.09 kcal/mol.
Regarding ACTGTCACGTGTTATG, the “relative binding free energy” value was 0.18 kcal/mol.
With TCTGGCACGTGAGCGT the figure was 0.1 kcal/mol; with GAAGACACGTGGTTGG, 0.12 kcal/mol.
As to GGTGGCACGTGCGCTT, the “relative binding free energy” value was -0.22 kcal/mol.
With GGGGGCACGTGTAGAA the figure was -0.07 kcal/mol; with AGGGGCACGTGGGCTA, -0.41 kcal/mol; with TGCCTCACGTGAGGTG, 0.33 kcal/mol.
To GGTCGCACGTGTGTTT belongs 0.05 kcal/mol; to TAAGTCACGTGGTAGC, 0.05 kcal/mol.
To TTGGTCACGTGATCTG belongs 0.21 kcal/mol; to AGGTGCACGTGCTAGG, -0.18 kcal/mol.
